Results from the supplement of paper PMC7826260.
This is one part of the list. The data describe in vitro nicking of single-stranded DNA by Rep domains (3 µM enzyme, 1 h, 37 °C); shown is the middle of each 90-letter strand. The score is log2 (uncut reads / reads without enzyme); uncut sequences lie near 0, cut ones below; no hit call is given. Reads are scaled to the total; where an enzyme cuts many sequences, the uncut ones exceed 0.

What was measured:
Test in all cases: uncleaved DNA left, log2 of reads against the no-enzyme library (log2 ratio); higher = less cleavage (more negative = more Rep cleavage of the k-mer); sequences stand for … in CTCGTCCG…ACCGGAGA
[1] = test system: T1, Rep nickase domain of Muscovy duck circovirus
T1 sequence (Rep 1-111, printed without the tag): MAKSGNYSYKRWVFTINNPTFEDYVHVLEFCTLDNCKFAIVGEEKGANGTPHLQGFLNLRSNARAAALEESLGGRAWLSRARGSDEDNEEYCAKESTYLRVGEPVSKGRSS
Protocol: (§1)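 A pool of 90-nt single-stranded DNAs with seven random bases just before the constant AC of the nick site (name = the seven bases) was cut by 3 µM recombinant His6-SUMO-tagged Rep nickase domain (300 nM DNA, 50 mM HEPES pH 8.0, 50 mM NaCl, 1 mM MnCl2, 1 h, 37 °C, three replicates). Uncut DNA was amplified and sequenced.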

[2] = test system: T2, Rep nickase domain of banana bunchy top virus
T2 sequence (Rep 1-94, printed without the tag): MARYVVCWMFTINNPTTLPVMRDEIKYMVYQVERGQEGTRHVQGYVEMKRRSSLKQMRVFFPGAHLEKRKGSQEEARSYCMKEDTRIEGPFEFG
Protocol: as §1

[3] = test system: T3, Rep nickase domain of cabbage leaf curl virus
T3 sequence (Rep 1-116, printed without the tag): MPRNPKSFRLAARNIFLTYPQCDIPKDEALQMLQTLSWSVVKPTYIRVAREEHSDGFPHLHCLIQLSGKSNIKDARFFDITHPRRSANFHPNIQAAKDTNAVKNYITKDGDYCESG
Protocol: as §1

[4] = test system: T4, Rep nickase domain of chickpea chlorotic dwarf virus
T4 sequence (Rep 1-124, printed without the tag): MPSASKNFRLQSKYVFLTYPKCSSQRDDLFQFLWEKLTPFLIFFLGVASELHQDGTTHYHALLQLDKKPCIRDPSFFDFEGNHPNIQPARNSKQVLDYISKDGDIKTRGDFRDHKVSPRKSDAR
Protocol: as §1

[5] = test system: T5, Rep nickase domain of faba bean necrotic yellows virus
T5 sequence (Rep 1-98, printed without the tag): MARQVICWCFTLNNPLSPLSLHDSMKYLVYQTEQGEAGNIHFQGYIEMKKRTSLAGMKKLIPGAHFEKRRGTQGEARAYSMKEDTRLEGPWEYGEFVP
Protocol: as §1

[6] = test system: T6, Rep nickase domain of maize striate mosaic virus
T6 sequence (Rep 1-117, printed without the tag): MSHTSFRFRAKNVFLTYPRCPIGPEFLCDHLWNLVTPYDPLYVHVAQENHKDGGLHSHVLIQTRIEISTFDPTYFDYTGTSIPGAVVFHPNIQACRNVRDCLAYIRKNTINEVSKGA
Protocol: as §1

[7] = test system: T7, Rep nickase domain of porcine circovirus 2
T7 sequence (Rep 2-116, printed without the tag): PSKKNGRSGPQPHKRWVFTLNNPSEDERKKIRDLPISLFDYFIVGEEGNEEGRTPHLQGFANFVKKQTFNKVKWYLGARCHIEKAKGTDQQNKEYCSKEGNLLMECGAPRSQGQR
Protocol: as §1

[8] = test system: T8, Rep nickase domain of tomato golden mosaic virus
T8 sequence (Rep 1-124, printed without the tag): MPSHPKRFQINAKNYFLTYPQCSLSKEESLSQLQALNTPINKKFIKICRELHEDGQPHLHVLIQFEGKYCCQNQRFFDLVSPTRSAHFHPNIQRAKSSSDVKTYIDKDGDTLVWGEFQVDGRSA
Protocol: as §1

[9] = test system: T9, Rep nickase domain of tomato yellow leaf curl virus
T9 sequence (Rep 1-136, printed without the tag): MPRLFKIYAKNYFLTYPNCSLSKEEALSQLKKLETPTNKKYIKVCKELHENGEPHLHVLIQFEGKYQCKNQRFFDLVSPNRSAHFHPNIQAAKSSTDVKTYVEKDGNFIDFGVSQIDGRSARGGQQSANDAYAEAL
Protocol: as §1

[10] = test system: T10, Rep nickase domain of wheat dwarf virus
T10 sequence (Rep 1-137, printed without the tag): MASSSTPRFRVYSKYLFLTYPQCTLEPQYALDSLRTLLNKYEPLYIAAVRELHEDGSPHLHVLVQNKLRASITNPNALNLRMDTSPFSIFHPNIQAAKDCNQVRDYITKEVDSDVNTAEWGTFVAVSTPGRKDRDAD
Protocol: as §1

| Sequence | uncleaved DNA left (log2) [1] | uncleaved DNA left (log2) [2] | uncleaved DNA left (log2) [3] | uncleaved DNA left (log2) [4] | uncleaved DNA left (log2) [5] | uncleaved DNA left (log2) [6] | uncleaved DNA left (log2) [7] | uncleaved DNA left (log2) [8] | uncleaved DNA left (log2) [9] | uncleaved DNA left (log2) [10] |
| --- | --- | --- | --- | --- | --- | --- | --- | --- | --- | --- |
| GTTTTGG | 0.185 | 0.0107 | 0.231 | 0.516 | 0.0974 | 0.402 | 0.109 | 0.0655 | 0.0594 | 0.0491 |
| TGAGATC | 0.0348 | -0.0966 | 0.319 | 0.502 | 0.097 | 0.509 | 0.19 | 0.00827 | -0.0154 | 0.0482 |
| TCGGCGG | 0.203 | 0.041 | 0.26 | 0.594 | 0.0318 | 0.883 | 0.199 | 0.177 | -0.027 | -0.0969 |
| CCATGTG | 0.12 | 0.0185 | -0.614 | 0.26 | 0.0631 | -0.588 | 0.252 | -0.0423 | 0.16 | -0.0087 |
| GCAGGGA | 0.171 | 0.145 | 0.42 | 0.919 | 0.128 | 0.474 | 0.237 | 0.159 | 0.127 | 0.152 |
| GCCGATC | 0.0314 | -0.0725 | -0.0379 | 0.518 | 0.0157 | -0.0808 | 0.0345 | 0.0631 | -0.0274 | 0.0455 |
| CACGAAC | 0.0235 | -0.0578 | -0.105 | -0.128 | 0.0122 | -0.736 | 0.176 | -0.103 | -0.00245 | 0.0174 |
| CGTGTAA | 0.0848 | 0.0977 | 0.239 | 0.3 | 0.113 | 0.912 | 0.135 | 0.141 | 0.109 | 0.171 |
| ACTTGGC | 0.0142 | -0.165 | -0.614 | -0.64 | -0.0239 | -1.02 | 0.148 | -0.109 | -0.021 | -0.11 |
| CCTTAGA | -0.138 | -0.203 | -0.255 | -0.643 | -0.0443 | -1.22 | -0.104 | -0.178 | -0.131 | -0.164 |
| CCTCTGA | 0.0602 | -0.0948 | -0.0867 | -0.259 | -0.00842 | -0.636 | -0.0367 | -0.217 | -0.0835 | -0.086 |
| GTGCGTC | -0.0452 | -0.155 | 0.162 | 0.421 | -0.105 | 0.475 | 0.113 | 0.0687 | 0.0327 | -0.0648 |
| CTGGGGG | -0.0266 | -0.13 | 0.0269 | 0.0743 | -0.0898 | -0.297 | 0.0348 | -0.0921 | -0.264 | -0.209 |
| TGATGCT | -2.32 | 0.0397 | -0.735 | -2.2 | 0.0376 | -1.22 | -2.28 | -0.0131 | 0.0034 | -0.13 |
| GAGACGC | 0.0171 | 0.152 | 0.789 | 1.9 | 0.016 | 1.96 | 0.181 | 0.111 | 0.119 | 0.117 |
| GCACGGA | -0.135 | -0.0199 | 0.016 | 0.446 | -0.0472 | 0.0186 | -0.0353 | -0.109 | -0.0865 | -0.157 |
| GTTACTG | 0.102 | -0.0186 | 0.133 | 0.532 | 0.0583 | 1.35 | 0.0165 | -0.0397 | 0.0216 | 0.0761 |
| GTCTGAT | -0.000575 | -0.0261 | 0.278 | 0.732 | -0.171 | 1.56 | -0.278 | 0.0554 | 0.0379 | -0.0263 |
| CGCAACG | -0.0939 | -0.0541 | -0.784 | -0.451 | -0.0345 | -0.866 | 0.0479 | -0.132 | -0.0974 | -0.161 |
| GAAGCGG | 0.122 | 0.0409 | 0.325 | 1.03 | 0.0484 | 1.06 | 0.126 | 0.145 | -0.0316 | -0.0232 |
| CCTGTAT | -0.0538 | -0.0433 | -0.0323 | -0.485 | 0.0315 | -0.434 | -0.0717 | -0.078 | 0.0134 | -0.0826 |
| GGGATAA | 0.101 | 0.12 | 0.945 | 2.16 | 0.0135 | 2.27 | 0.206 | 0.0479 | 0.0533 | 0.244 |
| AGGCTGT | -0.0955 | -0.0102 | 0.226 | 1.27 | 0.0562 | 1.67 | 0.17 | -0.0192 | -0.0608 | -0.0268 |
| GACGGAC | -0.0156 | 0.00823 | 0.619 | 1.71 | -0.181 | 1.97 | 0.177 | 0.107 | -0.0718 | 0.0488 |
| GTGAATA | -0.0412 | 0.178 | 0.34 | 0.943 | 0.00733 | 1.76 | 0.0597 | 0.0576 | 0.109 | 0.13 |
| TTTATGC | 0.0242 | 0.035 | -0.512 | -0.587 | 0.0157 | -1.1 | 0.0493 | -0.0717 | 0.0538 | -0.0161 |
| TTACCAA | -0.0767 | 0.131 | 0.0029 | -1.4 | -0.0262 | 0.0432 | -0.914 | -0.0795 | 0.136 | 0.14 |
| CGCCGGG | 0.0534 | -0.0129 | 0.503 | 0.707 | 0.0648 | 1.28 | 0.124 | 0.0928 | 0.0897 | 0.0695 |
| TGGTTGG | 0.0561 | -0.00406 | -0.0218 | -0.238 | 0.000963 | -0.567 | 0.137 | 0.0441 | 0.058 | 0.00203 |
| CGAGGAG | -0.00599 | 0.0201 | -0.384 | 0.00889 | -0.0048 | -0.557 | 0.0363 | 0.0753 | -0.114 | -0.0598 |
